The series relates to ATP. As to the kind of experiment: switch fluorescence ratio, 500 uM ATP over buffer (Cy3 cluster intensity, sum of 5 cycles each) (fold (ratio)); higher = stronger signal-on switching upon ATP binding; sequences stand for … in TCGTCGGCAGCGTCAGATGTGTATAAGAGACAGTTTTTTTTTTTTTTTTTTTTTTTTT…TC. The following applies: aptamer strand: ATP DNA aptamer (quencher-CACCTGGGGGAGTATTGCGGAGGAAGG + anchor), 100 nM annealed; ATP concentration: 500 uM; one replicate. In a few lines: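 Exposure to 500 uM ATP lasted 15 min at 22 °C before imaging, and a selection-buffer image was taken beforehand, for Cy3-labelled switching-strand clusters on a modified Illumina MiSeq flow-cell annealed to 100 nM quencher-labelled ATP aptamer. Five buffer/ATP cycles were run with NaOH stripping and re-annealing between them. The fluorescence ratio per cluster is summed target-cycle over summed buffer-cycle Cy3 intensity, averaged per switch-domain sequence. Clusters outside 100-1000 RFU were excluded.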

Sequences with one replicate were seen in a single cluster, so their values are uncertain.

As for TAGGCAAAGA, the switch fluorescence ratio was 1.06. The figure for GAATAACCGT is 0.988; for GGCAATTCCG it is 1.05; for GGTAACCCGA it is 0.983. For AGGAGCAAGA, the switch fluorescence ratio was 1.96. The same measure for GAGTGGCCTC: 0.956; for TTATATTGAG: 0.995; for GTCGCTTATA: 1.05.

Turning to CGGACCTCTC, the switch fluorescence ratio came out at 1.03. On to ACGGATTCGT, for which the switch fluorescence ratio came to 1.01.

Turning to CAGCGAGCGG, the switch fluorescence ratio was found to be 1.06. The same measure for TGTCCAGTGC: 1.09; for ATGGATGAAG: 0.973; for TTGGCCGGAA: 1.02. Take CGTCGTTTAG: the switch fluorescence ratio stood at 1.01.

On to TGGGGATAG, for which the switch fluorescence ratio is 1.01.

For the sequence TGCTTGGCG, the switch fluorescence ratio came out at 1.01. As for AGCGAATCGC, the switch fluorescence ratio was 1.04. Consider GGAACTGGAT, for which the switch fluorescence ratio was determined as 1.01. As to CCATTTGGAT, the switch fluorescence ratio worked out at 0.976. CTAAGGAGTA: the switch fluorescence ratio is 0.992.

Turning to AGGATAGTTT, the switch fluorescence ratio came out at 0.98. In the case of CCGACCGGTC, the switch fluorescence ratio worked out at 1.33. The figure for GAGCCTATAG is 1.04. Regarding TGCCTTAGGT, the switch fluorescence ratio is 1.01.

For GCGACAATAT, the switch fluorescence ratio was 2.87. Regarding TGTTAACGTA, the switch fluorescence ratio came out at 1.02. The same measure for TACAACCCTG: 1.02; for CCGTAGAAGG: 1.53; for CGTCACGGAG: 1.03. Consider AAACATAGTT, for which the switch fluorescence ratio came out at 1.02. As to GATTTATAAA, the switch fluorescence ratio was 1.01. The same measure for CTCGGGTGTT: 1. The figure for ACGTTGATGC is 1.15; for CGTTTAGGGT it is 1. TCGATGGGAC: the switch fluorescence ratio was determined as 1.04.

Regarding ATCTGGATAA, the switch fluorescence ratio came out at 1.

On to TCGTGATGAG, for which the switch fluorescence ratio was found to be 0.999.

ACGCCAGGT: the switch fluorescence ratio is 1.85. Take AATGTCATTG: the switch fluorescence ratio is 1.

With GGTTTGCATC, the switch fluorescence ratio was found to be 1.

On to CCTAGAGAAA, for which the switch fluorescence ratio was found to be 1.02. CGCCTGCGCT: the switch fluorescence ratio is 1.02. As to CTGGCCACAT, the switch fluorescence ratio stood at 1.

Take AATCCGAGCT: the switch fluorescence ratio was 1.13. With GCTTGAAAGT, the switch fluorescence ratio was found to be 1.01.

With ACGGGGATG, the switch fluorescence ratio was 1.09. Take GAGGTTAAGG: the switch fluorescence ratio was found to be 0.962. GTGGCTACAA: the switch fluorescence ratio is 1.02. Consider AGAATCTTTT, for which the switch fluorescence ratio is 1. Turning to TAGCTATTAA, the switch fluorescence ratio was determined as 1.05.

On to AATGTTTACC, for which the switch fluorescence ratio came to 1.01. The same measure for GACAGTTGTT: 1.02; for GGCCACAACT: 0.974; for CGGTCCTCGC: 1.08. Regarding GCCGATGTGC, the switch fluorescence ratio worked out at 1.01. Regarding TTCTAAAGTC, the switch fluorescence ratio came out at 0.991. Consider GCAGTAACTC, for which the switch fluorescence ratio is 1.84. Consider CATTAACGCG, for which the switch fluorescence ratio was found to be 0.995. On to TACCGTGGGA, for which the switch fluorescence ratio amounted to 1.05. With AGGGTGTGTA, the switch fluorescence ratio is 1.01. As to GAGGTATCTC, the switch fluorescence ratio amounted to 0.998. As to AAGGCACCAG, the switch fluorescence ratio came to 1.04. As to AAGCGACAGC, the switch fluorescence ratio amounted to 1.04. For TGACAAGTTA, the switch fluorescence ratio amounted to 1.01. The same measure for GAAGATTGTG: 1.

For ATATACGATC, the switch fluorescence ratio was 1.05.

On to GTCCCCGATC, for which the switch fluorescence ratio is 1.06. Take CCCCACGAAG: the switch fluorescence ratio came out at 1.05.

With GCTATGGAAG, the switch fluorescence ratio came out at 1.01. Turning to TTCCACGGTT, the switch fluorescence ratio was found to be 1.01. Regarding CCAGAGTAGC, the switch fluorescence ratio was 1.14. For ATGTTGATTA, the switch fluorescence ratio turned out to be 0.992. The figure for TGCCATGAGA is 1.03. In the case of AGGCAGGTCT, the switch fluorescence ratio came to 1. Take TCATCGGCCG: the switch fluorescence ratio turned out to be 0.989. For the sequence AGACAGATGG, the switch fluorescence ratio amounted to 1.1.

For GTTTTCACCC, the switch fluorescence ratio amounted to 0.983.

In the case of CGCCGGGCGC, the switch fluorescence ratio is 1.02. CATCTTAA: the switch fluorescence ratio stood at 1.03. Turning to CAGATGGAAG, the switch fluorescence ratio was 1. Consider AAACATGAGG, for which the switch fluorescence ratio turned out to be 1.04. Take CAGAGTTAGG: the switch fluorescence ratio was found to be 0.982.

As for TTCTCTCGTC, the switch fluorescence ratio was determined as 1.02. Regarding CGCGGGAGTG, the switch fluorescence ratio was 1.02. As to TTTTCCTGT, the switch fluorescence ratio came out at 1.02. Take ACGCTCTTAT: the switch fluorescence ratio is 1.07.

On to TTTTTCATTG, for which the switch fluorescence ratio came out at 1.01. As for GGGCTTTAGC, the switch fluorescence ratio came out at 1.08. The same measure for GCGGGGACAC: 1.05; for TAATATTCA: 1.04. The figure for GTCAATTAGC is 0.942; for GGGACATATG it is 0.984; for AAACTATTTG it is 0.995. In the case of TTAGGATGGG, the switch fluorescence ratio was determined as 0.98. CAGCTCGGGA: the switch fluorescence ratio is 0.988. Take ACTCTATGTC: the switch fluorescence ratio came to 1.03.

With TATCTGGTCA, the switch fluorescence ratio amounted to 0.987. The figure for GTGAGTCCGT is 1.03; for GGAAATCAAC it is 1.12. Consider GCCCCAACCG, for which the switch fluorescence ratio came to 1.11. With TGAGTGCCGA, the switch fluorescence ratio was 1.03. For the sequence CCCGTTTGCA, the switch fluorescence ratio stood at 1.03. The figure for GCGCTAATGG is 1.46; for GTTTGGACGT it is 0.99; for GGGTCGTCTC it is 0.956. For TAATATGAT, the switch fluorescence ratio came out at 0.981. The same measure for ACTTGGATTC: 1. Consider TGCCGCCCAT, for which the switch fluorescence ratio worked out at 1.96. Consider TCAGAGCCCA, for which the switch fluorescence ratio worked out at 1.38. As for CAACTGCGCC, the switch fluorescence ratio worked out at 1.29. For the sequence AATATACCTG, the switch fluorescence ratio was 1.03.

Regarding ACATCAACGC, the switch fluorescence ratio came out at 1.12. As to CGGTAGCCTG, the switch fluorescence ratio came out at 0.931.

Take CTCGAAACGG: the switch fluorescence ratio was found to be 0.965. Regarding GATCGCCATC, the switch fluorescence ratio was 1.26. In the case of CCTGAAGCGC, the switch fluorescence ratio was 1.21. As for GCGTTGTCAT, the switch fluorescence ratio came out at 0.986. Take GAGTCCGGTT: the switch fluorescence ratio was found to be 1.05. Regarding ATGTACGGAG, the switch fluorescence ratio came to 0.997.

(Values after the supplement of paper PMC10126150.)
